Data reported in PubChem BioAssay AID1508642 (National Center for Advancing Translational Sciences (NCATS), 2021).
The whole screen tested about 43,000 compounds, of which about 200 (0.47%) were called active. Not shown: some 12% with an inconclusive outcome. The call rests on the fitted dose curve; in most records, active means well fitted cell-killing curve with a large enough effect; inconclusive means small, poorly fitted or top-dose-only effect, or effect the other way; inactive means flat fitted curve, though single readings scatter. The list shows a part of the results.

assay: Cell viability qHTS assay in S16 Pmp22-F2sN cells; conditions: S16 Pmp22-F2sN Schwann cells (luciferase reporters placed in the Pmp22 gene) viability, CellTiter-Glo, 24 h; series mostly up to 57.5 µM; activity change, negative = cytotoxicity: at the top concentration; further: nearly all actives have a fitted effect of over 65% in size
How it was run: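 S16 Schwann cells carrying the Pmp22-F2sN reporter, seeded in 1536-well format, were exposed to library compounds for 24 h at 37C. Viability was read as CellTiter-Glo luminescence after 15 min at room temperature.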
On the % scale 0 is the no-effect control and ±100 the full control effect; potency means the concentration at half of the fitted maximal effect.

Row | SMILES | activity change, negative = cytotoxicity | Potency
1 | Fc1ccc(C(Nc2ccc(Cl)c(C(F)(F)F)c2)c2nnc(-c3ccccc3)o2)cc1 (stereo unspecified) | inactive: -9.9% | 
2 | COC(=O)c1ccc(Cl)cc1NC(=O)N1CCC(CN2CCCC2)CC1 | inactive: -1.25% | 
3 | Cc1ccc(C(=O)c2cn(Cc3ccccc3F)c3cc4c(cc3c2=O)OCO4)cc1 | inactive: 2.25% | 
4 | N#C/C(=C\c1ccc(Br)cc1)c1nc(-c2cc3cc(Br)ccc3oc2=O)cs1 | inactive: 3.44% | 
5 | O=C(Nc1ccc(Br)cc1)c1ccc(Br)c(S(=O)(=O)N2CCCCC2)c1 | inactive: -24.8% | 
6 | Cc1cn2c(=O)cc(COC(=O)c3cccc(NC(=O)COc4ccc(Cl)cc4)c3)nc2s1 | inactive: -0.0303% | 
7 | Cc1ccc(CCNC(=O)c2cc3sccc3n2Cc2ccc(F)cc2)cc1 | inactive: -5.31% | 
8 | CCc1ccc(S(=O)(=O)c2c[nH]c3cc(OC)c(OC)cc3c2=O)cc1 | inactive: -1.77% | 
9 | COc1ccc2cc3cc(C(=O)NCCc4ccccc4)sc3nc2c1Cl | inactive: -2.88% | 
10 | CCc1ccccc1N(C)S(=O)(=O)c1ccc2[nH]cc(C(=O)NCCOC)c(=O)c2c1 | inactive: -0.449% | 
11 | Cc1ccc(N2CCN(C(=O)c3c(C)oc4nc(C)nc(N5CCCC5)c34)CC2)c(C)c1 | inactive: -14.1% | 
12 | COc1cc(NS(=O)(=O)c2ccc(NC(=O)c3ccc(C(C)=O)cc3)cc2)nc(OC)n1 | inactive: 13.9% | 
13 | CCOC(=O)c1cccc(NC(=O)N2CC(CC)Oc3ccccc32)c1 (stereo unspecified) | inactive: -0.718% | 
14 | COc1ccc(NC(=O)c2sc3nc4c(cc3c2N)CCCCCC4)cc1Cl | inactive: -19.3% | 
15 | O=C(CSc1ncc2c(n1)-c1ccccc1N(Cc1ccc(F)cc1)S2(=O)=O)NCc1ccccc1 | inactive: 3.52% | 
16 | Cc1cccc(CNC(=O)CCCN2C(=O)COc3ccc(C)cc32)c1 | inactive: -1.71% | 
17 | CCn1c(=O)c2cc(C(=O)N(C)c3cc(Cl)c(OC)cc3OC)sc2c2ccccc21 | inactive: 10.8% | 
18 | Cc1cccc(-n2ncc(C(=O)NCc3ccco3)c2C2CCN(C(=O)OC(C)(C)C)CC2)c1 | inactive: -22% | 
19 | COc1ccc2cc3cc(C(=O)Nc4ccccc4C)oc3nc2c1 | inactive: 5.24% | 
20 | COc1ccc(NC(=O)CSc2nc(C)cc(C)c2C(=O)Nc2cccc(C)c2)cc1 | inactive: 4.56% | 
21 | COc1cccc(C(=O)Nc2ccccc2-c2nnc(-c3ccc(C(C)(C)C)cc3)o2)c1 | inactive: 10.5% | 

Row | SMILES | activity change, negative = cytotoxicity | Potency
22 | O=C(c1ccccc1Cl)N1CCN(CCc2ccccn2)CC1 | inactive: 14.2% | 
23 | Cc1ccccc1NC(=O)c1ccc(F)c(S(=O)(=O)NC2CCCC2)c1 | inactive: 13.6% | 
24 | CCN1CCN(C(=O)c2ccc3c(c2)N(Cc2ccccc2F)C(=O)c2ccccc2S3(=O)=O)CC1 | inactive: 11.4% | 
25 | C[C@@H](NC(=O)CN(c1ccccc1)S(=O)(=O)N(C)C)c1ccccc1 | inactive: 4.92% | 
26 | CCCOC(=O)c1ccc(Nc2nc3ccccc3nc2-n2nc(C)cc2C)cc1 | inactive: -2.62% | 
27 | CCOc1ccc(-c2cc(CCCC(=O)NCCc3ccc(OCC)c(OCC)c3)no2)cc1 | inactive: -1.53% | 
28 | CCOc1ccc(CCNC(=O)Cc2ccc(NC(=O)N3CCSc4ncccc43)cc2)cc1 | inactive: 2.74% | 
29 | COc1ccc(-n2nc(C(=O)N3CCN(c4cccc(C(F)(F)F)c4)CC3)c3c4ccccc4n(C)c3c2=O)cc1Cl | inactive: 25.6% | 
30 | COc1cc(OC)cc(C(=O)Nc2nc(-c3nnn(-c4ccc(F)c(Cl)c4)c3C)ns2)c1 | inactive: -11% | 
31 | COc1cccc(N2CCN(C(=O)Cn3ncc4c5ccccc5n(C)c4c3=O)CC2)c1 | inactive: -0.64% | 
32 | Cc1cccc(-c2noc(-c3cc(-c4ccc(F)cc4)n[nH]3)n2)c1 | inactive: 2.4% | 
33 | Cc1oc2ncn(C)c(=O)c2c1C(=O)NCc1ccccc1 | inactive: 6.93% | 
34 | CCOCCc1nn2c(=O)cc(COC(=O)c3ccco3)nc2s1 | inactive: -0.314% | 
35 | COc1cc(-c2noc(-c3ccc(N4CCCCC4)c([N+](=O)[O-])c3)n2)cc(OC)c1OC | inactive: 2.89% | 
36 | O=C(Nc1ccc2oc(-c3cc(Br)ccc3Cl)nc2c1)c1ccc2ccccc2c1 |  | active: 22.4 µM
37 | COc1cccc(CNC(=O)c2nnc(Cc3ccc(Cl)cc3)o2)c1 | inactive: 5.07% | 
38 | O=C(CSc1nc(O)c(C/C=C/c2ccccc2)c(=O)[nH]1)Nc1cccc(F)c1 | inactive: -9.9% | 
39 | CC(C)(C)c1ccc(S(=O)(=O)N2CCN(C(=O)c3cc(-c4ccc(Br)cc4)n[nH]3)CC2)cc1 | inactive: 2.31% | 
40 | O=C(NCc1ccc(Cl)cc1)C1CCN(S(=O)(=O)c2ccc3c(c2)CCCN3C(=O)C2CCC2)CC1 | inactive: -4.43% | 
41 | CCOc1ccc(NC(=O)c2noc3c2CSc2ccccc2-3)cc1 | inactive: 2.14% | 
42 | COc1ccc(-n2c(SCC(=O)NCc3ccccc3)nc3n[nH]c(C)c3c2=N)cc1 | inactive: -17.4% | 

Row | SMILES | activity change, negative = cytotoxicity | Potency
43 | CCCn1c(=O)c2sccc2n2c(CCCC(=O)Nc3ccccc3F)nnc12 | inactive: 11.3% | 
44 | CN(C(=O)c1oc(=O)c2ccccc2c1-c1ccccc1)c1cccc(Cl)c1 | inactive: -21.2% | 
45 | COc1cccc(N2CCN(C(=O)Cn3ncc4c(=O)oc5ccccc5c43)CC2)c1 | inactive: 18.5% | 
46 | O=C1CC(c2cccc(F)c2)c2c(n3ncnc3[nH]c2=O)N1 (stereo unspecified) | inactive: 3.86% | 
47 | CCOC(=O)Cn1c(=O)n(C2CCCCC2)c2nc(-c3cccc(C)c3)nc(C(N)=O)c21 | inactive: 9.64% | 
48 | O=C(CSc1ccc(-c2cccs2)nn1)Nc1cccc(F)c1 | inactive: -23.6% | 
49 | COc1ccccc1N1CCN(c2ncnc3onc(C)c23)CC1 | inactive: 1.36% | 
50 | COc1ccc(-c2cc(C)no2)cc1S(=O)(=O)N1CC(C)Oc2ccccc21 (stereo unspecified) | inactive: -0.192% | 
51 | COc1ccc(CNC(=O)C(C)n2nc(C)c3sc4ccccc4c3c2=O)cc1OC (stereo unspecified) | inactive: -5.22% | 
52 | CCOC(=O)c1cc2c(=O)n3ccccc3nc2n(CC2CCCO2)c1=NC(=O)c1ccccc1F (stereo unspecified) | inactive: -2.9% | 
53 | Cc1ccccc1NC(=O)CSc1nnc(-c2cccc(Cl)c2)o1 | inactive: 14.3% | 
54 | O=C(CSc1n[nH]c(-c2ccccc2)n1)NCCc1ccccc1 | inactive: 5.07% | 
55 | COc1cccc(CNC(=O)CCS(=O)(=O)c2cc3c4c(c2)CCN4C(=O)CC3)c1 | inactive: -16.2% | 
56 | COc1ccc(N(CC(=O)N2CCN(c3ccc(F)cc3)CC2)S(=O)(=O)c2c(C)nn(C)c2C)cc1 | inactive: -4.25% | 
57 | CC(=O)c1c(C)oc2ccc(N(C(=O)c3ccncc3)S(=O)(=O)c3ccc(F)cc3C)cc12 | inactive: -8.6% | 
58 | Cc1cccc(C(=O)Nc2sc3c(c2C(=O)O)CCCC3)c1 | inactive: 4.22% | 
59 | Cc1cc(C)cc(NC(=O)CN(C)S(=O)(=O)c2ccc3c(c2)CCC(=O)N3)c1 | inactive: 11.4% | 
60 | CCOC(=O)C(CC)Sc1nnc2[nH]c(=O)cc(C)n12 (stereo unspecified) | inactive: 9.74% | 
61 | COc1cccc(CNC(=O)CC(c2ccc(C)cc2)N2Cc3ccccc3C2=O)c1 (stereo unspecified) | inactive: 3.22% | 
